{"source": "PubChem BioAssay AID624417", "about": "(National Center for Advancing Translational Sciences (NCATS), 2012)", "note": "Where “and” joins values, the source holds several entries; their conditions need not be identical. Equal values may be shown once. Among all 410,000 compounds or so, about 6,400 (1.6%) were called active. Inconclusive means that the source gave no clear call. Such entries were picked first, then a sample of the others. Calls come from the whole dose curve; as a rule, active = well fitted inhibition curve with a large enough effect; inconclusive = small, poorly fitted or top-dose-only effect; inactive = no such curve, though single readings can be large or run the other way. A potency beside an inconclusive call is a rough fit, not a confirmed value. Potency is the fitted concentration of half-maximal effect; tags give direction and shape of the fitted curve.", "data": [{"molecular_target": "Glucagon-like peptide 1 receptor (Homo sapiens) (UniProt P43220)", "sequence (P43220 whole entry, looked up)": "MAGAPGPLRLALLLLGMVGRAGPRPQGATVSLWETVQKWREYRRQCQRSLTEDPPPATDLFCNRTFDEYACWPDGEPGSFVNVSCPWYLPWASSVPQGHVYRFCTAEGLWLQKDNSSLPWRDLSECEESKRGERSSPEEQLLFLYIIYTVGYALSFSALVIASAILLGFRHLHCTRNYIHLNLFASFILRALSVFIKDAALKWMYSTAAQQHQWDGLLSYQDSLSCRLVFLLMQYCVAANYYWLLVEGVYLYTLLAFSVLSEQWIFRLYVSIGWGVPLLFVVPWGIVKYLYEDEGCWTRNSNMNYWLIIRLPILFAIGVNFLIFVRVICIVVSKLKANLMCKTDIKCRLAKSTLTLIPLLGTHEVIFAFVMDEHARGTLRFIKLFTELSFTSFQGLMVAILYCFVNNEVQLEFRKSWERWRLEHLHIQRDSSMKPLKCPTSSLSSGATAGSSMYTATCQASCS", "test": "qHTS of GLP-1 Receptor Inverse Agonists (Inhibition Mode); note: nearly all actives have a fitted effect of over 55% in size", "settings": "HEK293 GLP-1R CRE-luciferase, luminescence, 24 h, GLP-1R form is constitutively active; series mostly up to 38.3 µM", "in_short": "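Inverse agonism was detected as reduced cAMP-driven luciferase luminescence after 24 h compound treatment. The cells were HEK293 clones expressing constitutively active human GLP-1R with the reporter. Reporter-only and GPR119 cell lines served as counterscreen controls.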", "values": [{"compound": "O=C(COc1ccccc1F)Nc1cc(S(=O)(=O)Nc2cccc(Cl)c2)ccc1O", "Potency": "inconclusive: 31.6 µM [inhibitor, single point]"}, {"compound": "O=C(NC1CCCCC1)C(c1ccc2ncccc2c1)N(Cc1ccc(F)cc1)C(=O)c1cccs1", "note": "(stereo not drawn)", "Potency": "inconclusive: 28.2 µM [inhibitor, single point]"}, {"compound": "FC(F)(F)c1cccc(Cc2noc(CN3CCCCC3c3ccccn3)n2)c1", "note": "(stereo not drawn)", "Potency": "inconclusive: 11.2 µM [inhibitor, partial curve, poor fit]"}, {"compound": "COC(=O)c1ccc(NC(=O)Nc2ccc(C)cc2)cc1", "Potency": "inconclusive: 10 µM [inhibitor, partial curve, poor fit]"}, {"compound": "Cc1ccc(C(O)c2ncc(-c3ccc(F)cc3)[nH]2)c(C)c1", "note": "(stereo not drawn)", "Potency": "inconclusive: 12.6 µM [inhibitor, single point]"}, {"compound": "O=C(Cn1ncn2c(cc3ccccc32)c1=O)NCc1ccc(F)cc1", "Potency": "inactive"}, {"compound": "COc1ccc(F)cc1S(=O)(=O)Nc1cccc(-c2ccc(N3CCC(C)CC3)nn2)c1", "Potency": "inconclusive: 10 µM [inhibitor, partial curve, poor fit]"}, {"compound": "Cc1nc2cc(NC(=O)c3ccc(S(=O)(=O)N(C)c4ccccc4)cc3)ccc2o1", "Potency": "inconclusive: 6.31 µM [inhibitor, partial curve, poor fit]"}, {"compound": "Cc1ccc(-c2cc(-c3ccccc3)c(C#N)c(SCC(O)CS(=O)(=O)Cc3ccccc3)n2)cc1", "note": "(stereo not drawn)", "Potency": "inconclusive: 3.55 µM [inhibitor, full curve]"}, {"compound": "O=C(NC1CCCN(Cc2ccc(Cl)cc2)C1)c1c(F)cccc1F", "note": "(stereo not drawn)", "Potency": "inconclusive: 10 µM [inhibitor, partial curve, poor fit]"}, {"compound": "COc1ccc(/C=N/OCC(=O)N=Nc2c(O)[nH]c3ccc(Br)cc23)cc1OC", "Potency": "inconclusive: 28.2 µM [inhibitor, single point]"}, {"compound": "CC(=O)NC(c1cccc([N+](=O)[O-])c1)c1c(OC(C)=O)ccc2ccccc12", "note": "(stereo not drawn)", "Potency": "inconclusive: 10 µM [inhibitor, partial curve, poor fit]"}, {"compound": "O=C(COc1coc(CN2CCc3ccccc32)cc1=O)NCCc1ccccc1", "Potency": "inconclusive: 7.08 µM [inhibitor, partial curve, poor fit]"}, {"compound": "COc1cc2nnn(-c3ccncc3)c2cc1OC", "Potency": "inactive"}, {"compound": "O=C(NCC1OCCc2ccccc21)c1cc(COc2c(F)cccc2F)on1", "note": "(stereo not drawn)", "Potency": "inconclusive: 11.2 µM [inhibitor, partial curve, poor fit]"}, {"compound": "CCN(CC)c1ccc(CNc2nc3ccccc3n2C(C)C)cc1", "Potency": "inconclusive: 12.6 µM [inhibitor, single point]"}, {"compound": "COc1ccc(C)cc1NC(=O)Nc1cccc(-c2noc(C)n2)c1", "Potency": "inconclusive: 11.2 µM [inhibitor, partial curve, poor fit]"}, {"compound": "S=c1[nH]nc(-c2ccco2)n1C1CCCCC1", "Potency": "inconclusive: 28.2 µM [inhibitor, single point]"}, {"compound": "CCOC(=O)C1=CNS(=O)(=O)NC1c1cccc(O)c1", "note": "(stereo not drawn)", "Potency": "inactive"}, {"compound": "Cc1noc(/C=C/c2ccccc2F)c1S(=O)(=O)N1CCC(C(=O)N2CCOc3ccccc32)CC1", "Potency": "inactive"}, {"compound": "Cc1cccc(NC(c2ccccc2F)c2ccc3ccc(C)nc3c2O)n1", "note": "(stereo not drawn)", "Potency": "inactive"}, {"compound": "Cc1ccc(OCC(=O)Nc2ccccc2OCc2cc(=O)n3ccccc3n2)cc1C", "Potency": "inactive"}, {"compound": "COc1ccc(-c2nc3ccccc3s2)cc1NC(=O)c1ccc(F)cc1", "Potency": "inactive"}, {"compound": "CCc1cccc(C)c1NC(=O)CSc1nnc(CCCOc2ccc(Cl)cc2Cl)n1C", "Potency": "inconclusive: 11.2 µM [inhibitor, partial curve, poor fit]"}, {"compound": "CN(C)S(=O)(=O)c1cc(NC(=O)CSc2ncc(C(F)(F)F)cc2Cl)ccc1Cl", "Potency": "inconclusive: 11.2 µM [inhibitor, partial curve, poor fit]"}, {"compound": "CCCCNC(=O)C1C(c2ccccc2)=Nc2ccccc2N1C(=O)c1ccc(C(F)(F)F)cc1", "note": "(stereo not drawn)", "Potency": "inconclusive: 11.2 µM [inhibitor, partial curve]"}, {"compound": "Clc1cc(Br)ccc1OCCOCCN1CCCC1", "Potency": "inconclusive: 10 µM [inhibitor, partial curve, poor fit]"}, {"compound": "CCN1CCN(C(=S)c2ccc(OCC(=O)NCc3ccccc3)cc2)CC1", "Potency": "inconclusive: 2.51 µM [inhibitor, full curve]"}, {"compound": "COc1ccc(NCc2nnc(SCC(=O)Nc3nc(-c4ccccc4)cs3)n2-c2ccccc2)cc1", "Potency": "inconclusive: 22.4 µM [inhibitor, single point]"}, {"compound": "Cc1c(C(=O)C(=O)N2CCCc3ccccc32)c2ccccc2n1C", "Potency": "inconclusive: 7.94 µM [inhibitor, partial curve, poor fit]"}, {"compound": "Nc1ccn([C@@H]2O[C@H](C(=O)N[C@H](CO)c3ccccc3)[C@@H](O)[C@H]2O)c(=O)n1", "Potency": "inactive"}, {"compound": "C=C(C)COc1ccc2c(CC)cc(=O)oc2c1C", "Potency": "inactive"}, {"compound": "Cc1cc(C)c(CN2CCC(CO)(CCOc3ccccc3)CC2)cc1C", "Potency": "inconclusive: 12.6 µM [inhibitor, partial curve, poor fit]"}, {"compound": "O=C(Nc1cccc(-c2cccc(Cl)c2)c1)C1CCN(CC2CCOC2)CC1", "note": "(stereo not drawn)", "Potency": "inconclusive: 5.01 µM [inhibitor, partial curve]"}, {"compound": "Oc1ccccc1-c1nc(NCc2cccnc2)c2ccccc2n1", "Potency": "inconclusive: 28.2 µM [inhibitor, single point]"}, {"compound": "C=C1c2cccc(O)c2C(=O)C2C(=O)[C@]3(O)C(=O)C(C(N)=O)C(=O)[C@@H](N(C)C)[C@@H]3[C@@H](O)[C@H]12", "note": "(stereo partly drawn)", "Potency": "inactive"}, {"compound": "CC(C)Oc1cccc(C(=O)C2CCCN(C(=O)c3cc(C4CC4)[nH]n3)C2)c1", "note": "(stereo not drawn)", "Potency": "inconclusive: 17.8 µM [inhibitor, partial curve, poor fit]"}, {"compound": "Cc1ccc(C(=O)C2CCN(C(=O)c3ccc(C)cc3)CC2)cc1", "Potency": "active: 8.91 µM"}, {"compound": "O=C(COc1ccccc1C(=O)NCc1ccccc1)Nc1ccccc1", "Potency": "inconclusive: 14.1 µM [inhibitor, single point]"}, {"compound": "C#Cc1ccc(CN2CCC(C(=O)Nc3ccc(Oc4ccccc4)nc3)CC2)cc1", "Potency": "inconclusive: 7.08 µM [inhibitor, partial curve, poor fit]"}, {"compound": "Cc1ccc(NC(=O)c2ccc3c(O)c(S(=O)(=O)c4ccccc4)c(=O)[nH]c3c2)cc1Cl", "Potency": "inactive"}, {"compound": "O=C1OC(c2ccccc2)=C/C1=C/N1CCOCC1", "Potency": "inactive"}, {"compound": "Cc1ccc(-c2nnc(Nc3ccc(C(=O)N(C)C)cc3)c3ccccc23)cc1S(=O)(=O)N(C)C", "Potency": "inactive"}, {"compound": "COc1ccc(NC(=O)CN(C)C(=O)COc2ccccc2Cc2ccccc2)cc1", "Potency": "inconclusive: 15.8 µM [inhibitor, partial curve, poor fit]"}, {"compound": "Cc1ccc(-c2cc(C(=O)N/N=C/C=C/c3ccco3)c3ccccc3n2)cc1C", "Potency": "inconclusive: 0.316 µM [inhibitor, full curve, poor fit]"}, {"compound": "COCCNC(=O)/C(C#N)=C/C=C/c1ccccc1[N+](=O)[O-]", "Potency": "inconclusive: 25.1 µM [inhibitor, single point]"}, {"compound": "CCOc1ccc(CN(C)C(=O)CCl)cc1", "Potency": "inconclusive: 12.6 µM [inhibitor, partial curve, poor fit]"}, {"compound": "CC1(C)CCc2cc(-c3ccn(S(=O)(=O)c4ccccc4Cl)n3)ccc2O1", "Potency": "inconclusive: 8.91 µM [inhibitor, partial curve, poor fit]"}, {"compound": "COCCNCCOc1ccc(C)cc1[N+](=O)[O-]", "Potency": "inactive"}, {"compound": "COc1ccc(OC)c(Cc2nnc(CCC(=O)NCc3nc4ccccc4s3)o2)c1", "Potency": "inactive"}, {"compound": "Cc1ccc(S(=O)(=O)N(CC(=O)NCc2cccs2)c2ccccc2)cc1", "Potency": "inconclusive: 31.6 µM [inhibitor, single point]"}, {"compound": "COCCN1C(=O)c2ccccc2C(C(=O)NCCN(C)C)C1c1ccc(F)cc1", "note": "(stereo not drawn)", "Potency": "inconclusive: 6.31 µM [inhibitor, partial curve, poor fit]"}, {"compound": "CC1(C(=O)NCc2ccc(F)c(F)c2)Cc2c(-c3ccc4c(c3)OCO4)ccnc2O1", "note": "(stereo not drawn)", "Potency": "inconclusive: 2.82 µM [inhibitor, full curve]"}, {"compound": "COc1ccc(C2c3cc(OC)c(OC)cc3CC(=O)N2c2ccc(C)c(F)c2)cc1", "note": "(stereo not drawn)", "Potency": "inconclusive: 6.31 µM [inhibitor, partial curve]"}, {"compound": "COc1ccccc1CNC(=O)CCn1c(=O)c2cccn2c2cccnc21", "Potency": "inactive"}, {"compound": "C[C@@H](C(=O)NCC1CC1)[C@@H]1C[C@@]1(C)[C@@H](NC(=O)OCc1ccccc1)c1ccccc1", "Potency": "inconclusive: 31.6 µM [inhibitor, single point]"}, {"compound": "CC1CCN(C(=O)COC(=O)c2ccccc2C(=O)c2ccccc2)CC1", "Potency": "inconclusive: 10 µM [inhibitor, single point]"}, {"compound": "C=CCc1ccccc1OCC(O)CN1CCN(c2ccccc2OC)CC1", "note": "(stereo not drawn)", "Potency": "inconclusive: 8.91 µM [inhibitor, partial curve, poor fit] and inconclusive: 10 µM [inhibitor, partial curve, poor fit]"}, {"compound": "O=C(Nc1ccc(Br)cn1)c1ccc([N+](=O)[O-])cc1Cl", "Potency": "inconclusive: 28.2 µM [inhibitor, single point]"}, {"compound": "O=[N+]([O-])c1cc(-c2nc(-c3ccccc3)no2)ccc1NC1CCCCC1", "Potency": "inactive"}, {"compound": "O=C(CSc1nnc(Nc2ccccc2F)s1)c1cc2ccccc2o1", "Potency": "inconclusive: 28.2 µM [inhibitor, single point]"}, {"compound": "CC1(Cc2ccccc2Cl)C(=O)Nc2c(Cl)ccc(Cl)c21", "note": "(stereo not drawn)", "Potency": "inconclusive: 28.2 µM [inhibitor, single point]"}, {"compound": "CCN(c1ccccc1)S(=O)(=O)c1c(-c2ccc(C)cc2)csc1C(=O)OC", "Potency": "inconclusive: 10 µM [inhibitor, single point]"}]}]}
